Laboratory results from PubChem BioAssay AID1461 (National Center for Advancing Translational Sciences (NCATS), 2008).
Out of some 220,000 compounds screened, about 2,300 (1%) were called active. Inconclusive means that the source gave no clear call. Such entries were picked first, then a sample of the others. Calls come from the whole dose curve; as a rule, active = well fitted inhibition curve with a large enough effect; inconclusive = small, poorly fitted or top-dose-only effect, or effect the other way; inactive = no such curve, though single readings can be large or run the other way. Potencies of inconclusive entries are left out as doubtful fits.
Note: nearly all actives have a fitted effect of over 50% in size.
Potency is the fitted concentration of half-maximal effect; tags give direction and shape of the fitted curve.

Each molecule was assayed against Neuropeptide S receptor (Homo sapiens) (UniProt Q6W5P4) (assay: qHTS Assay for Antagonists of the Neuropeptide S Receptor: cAMP Signal Transduction). Settings: CHO-NPSR cells, cAMP TR-FRET, antagonist mode; series mostly up to 38.3 µM.
UniProt Q6W5P4, sequence (Q6W5P4 whole entry, looked up): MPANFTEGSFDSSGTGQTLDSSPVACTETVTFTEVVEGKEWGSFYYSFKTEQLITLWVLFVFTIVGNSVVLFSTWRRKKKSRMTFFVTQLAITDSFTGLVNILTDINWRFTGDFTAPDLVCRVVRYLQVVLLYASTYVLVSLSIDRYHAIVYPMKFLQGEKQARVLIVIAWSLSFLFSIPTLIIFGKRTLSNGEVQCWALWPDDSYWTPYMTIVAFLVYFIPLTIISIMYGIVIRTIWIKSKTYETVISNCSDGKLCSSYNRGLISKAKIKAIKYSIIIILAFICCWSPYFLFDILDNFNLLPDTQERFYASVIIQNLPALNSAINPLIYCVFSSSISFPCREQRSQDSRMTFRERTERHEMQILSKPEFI
For `CC(=O)N1CCN(C(=O)CC2OC(=O)c3ccccc32)CC1` (stereo unspecified), the Potency was “inactive”. `Cc1cc(N2CCCC2=O)cc(C)c1S(=O)(=O)NCCOc1ccc(C(C)(C)C)cc1` was tested, and the Potency was inconclusive [inhibitor, single point]. For `CC1(C)CC(CCN(Cc2ccccc2)C(=O)c2ccco2)(c2ccccc2)CCO1` (stereo unspecified), the Potency was inconclusive [inhibitor, single point]. `Cc1nc(NC(=O)c2ccccc2)sc1-c1csc(Nc2cccc(F)c2)n1` was tested, and the Potency was inconclusive [inhibitor, single point]. In the case of `COc1ccc(/C=N/NC(=O)Cn2ccnc2C)cc1OC`, the Potency is reported as “inactive”. With `CCOc1c(Br)ccc2c1sc1nc[nH]c(=O)c12` the Potency was “inactive”. In the case of `CC(C)c1ccc(C2C(C#N)=C(N)N3C(=C2C#N)Sc2ccccc23)cc1` (stereo unspecified), the Potency is reported as active: 7.94 µM. `O=C(NC(Nc1nc2ccc([N+](=O)[O-])cc2s1)(C(F)(F)F)C(F)(F)F)c1ccccc1` was tested, and the Potency was active: 3.98 µM. With `Cc1[nH]nc(SCC(=O)NCc2ccc(F)cc2)c1[N+](=O)[O-]` the Potency was “inactive”. For `Cc1cccc(/C(N)=N/OC(=O)N2c3ccccc3Sc3ccccc32)c1`, the Potency was “inactive”. For `COc1ccc(C)cc1NC(=O)CSc1nnc(COc2ccc(C)cc2)n1Cc1ccco1`, the Potency was inconclusive [inhibitor, partial curve]. In the case of `Cn1c(SCC(=O)NC(=O)Nc2ccccc2)nnc1-c1ccncc1`, the Potency is reported as “inactive”. With `C[C@H](NC(=O)c1[nH]cnc1C(=O)Nc1ccc(CNC(=O)OC(C)(C)C)cc1)C(=O)OC(C)(C)C` the Potency was inconclusive [inhibitor, single point]. In the case of `COc1ccc2c(C)nc(Nc3nc(C)cc(C)n3)nc2c1`, the Potency is reported as inconclusive [inhibitor, single point]. `Cc1noc(NS(=O)(=O)c2ccc(N3Cc4ccccc4C3=O)cc2)c1C` was tested, and the Potency was inconclusive [inhibitor, single point]. `CCOC(=O)c1ccc(NC(=S)Nc2cccc(N)n2)cc1` was tested, and the Potency was inconclusive [activator, single point]. With `O=C(c1cc(C2CC2)on1)N1CCN(C(c2ccccc2)c2ccccc2)CC1` the Potency was inconclusive [inhibitor, partial curve]. `Cc1ccc(-n2cc3c(=O)n(C)c(=O)n(C)c3c2)cc1C` was tested, and the Potency was “inactive”. For `CCn1nnnc1SCC(=O)c1ccc(NC(C)=O)cc1`, the Potency was inconclusive [inhibitor, single point]. For `CC(Sc1nc(N2CCOCC2)nc(N2CCOCC2)n1)C(=O)Nc1ccccc1` (stereo unspecified), the Potency was inconclusive [inhibitor, partial curve, poor fit]. For `CC(=O)N1N=C(c2cccs2)CC1c1ccc(C)o1` (stereo unspecified), the Potency was “inactive”. For `CCC(=O)N(C)CCc1cc2c(c(OC)c1/C=N/NC(=O)[C@H]1C[C@@H]1c1ccccc1)OCO2`, the Potency was inconclusive [inhibitor, single point]. `O=C(C1=C[C@@H](c2csc3ccccc23)C[C@@H](OCc2ccc(CO)cc2)O1)N1CCN(Cc2ccccc2)CC1` was tested, and the Potency was inconclusive [activator, partial curve]. For `CCN(CC)C(=N)/C(C#N)=N/Nc1ccccc1`, the Potency was inconclusive [inhibitor, single point]. `CN(CC(=O)Nc1cccc(F)c1)C(=O)CCCc1cccs1` was tested, and the Potency was inconclusive [inhibitor, single point]. For `COC(=O)c1[nH]c2ccc(C)cc2c1NC(=O)CN1CCCC(C)(C)C1`, the Potency was inconclusive [inhibitor, partial curve]. For `COc1cc(/C=N/Nc2nc3ccccc3s2)cc([N+](=O)[O-])c1O`, the Potency was inconclusive [activator, partial curve]. `CC(=O)c1ccc(NC(=S)NC(C)CCc2ccccc2)cc1` (stereo unspecified) was tested, and the Potency was “inactive”. For `COc1ccc(-c2coc3cc4oc(=O)c5ccccc5c4cc23)cc1F`, the Potency was inconclusive [activator, full curve, poor fit]. For `CC(NC(=O)c1ccccc1)c1nc2ccccc2n1Cc1ccccc1F` (stereo unspecified), the Potency was inconclusive [inhibitor, single point]. For `O=C(C1CC1)N(Cc1ccco1)c1nc(-c2ccccc2)cs1`, the Potency was “inactive”. For `CC(C)CC(NC(=O)OC(C)(C)C)c1cn([C@@H](CCCCNC(=O)OC(C)(C)C)C(=O)N2CCN(C(=O)OC(C)(C)C)CC2)nn1` (stereo partly specified), the Potency was inconclusive [activator, single point]. `Cc1nc2c(C)cccc2cc1C(=O)N/N=C/c1cccnc1` was tested, and the Potency was “inactive”. For `CCOc1cc(/C=N/Nc2nn3cnnc3c3ccccc23)ccc1O`, the Potency was inconclusive [inhibitor, single point]. In the case of `CCCCN(Cc1ccco1)C(=O)c1cc2c(=O)[nH]c3ccc(C)cc3c2s1`, the Potency is reported as inconclusive [inhibitor, partial curve]. `CCCSc1ccc2nc(-c3ccccc3)cn2c1` was tested, and the Potency was inconclusive [inhibitor, partial curve]. With `Cc1c(C(=O)NCCC2=CCCCC2)oc2ccc(S(=O)(=O)N3CCOCC3)cc12` the Potency was inconclusive [inhibitor, single point]. For `Nc1nnc2c(n1)CCCC2`, the Potency was “inactive”. For `CC(C)C(=O)N(Cc1cc(=O)[nH]c2ccccc12)c1ccccc1`, the Potency was inconclusive [inhibitor, full curve, poor fit]. With `CC(C)C1S/C(=N/N=C/c2cccs2)NC1=O` (stereo unspecified) the Potency was “inactive”. In the case of `Cc1ccc(C)c(NC(=O)c2ccc(N(C)S(C)(=O)=O)cc2)c1`, the Potency is reported as inconclusive [inhibitor, single point]. `Cc1nn(-c2ccccc2)c(N)c1C1(O)C(=O)N(C(C)C)c2ccccc21` (stereo unspecified) was tested, and the Potency was “inactive”. In the case of `Cc1ccc(-c2noc(CC(c3ccccc3)c3ccccc3)n2)cc1`, the Potency is reported as inconclusive [inhibitor, single point]. With `Cn1c(C(F)(F)F)nc2c(=O)oc3ccccc3c21` the Potency was “inactive”. For `O=C(Nc1cccnc1)c1ccc(N2CCCC2)c([N+](=O)[O-])c1`, the Potency was “inactive”. In the case of `O=S1(=O)CCC(NC(=S)N2CCCCC2)C1` (stereo unspecified), the Potency is reported as “inactive”.
